According to patent US11999716B2, “WDR5 inhibitors and modulators” (priority 2018, dated 2024):
pKi: −log10 of the molar value.

molecular target: WDR5 (Homo sapiens, UniProt P61964); test: biochemical; type: binding; conditions: WDR5-His tag (Δ23, residues 24-334) 2 nM; 10mer-Thr-FAM probe 150 nM; Tb-anti-HIS 1 nM; 60 min, room temperature; read-out: Ki for Inhibition of WDR5 by TR-FRET assay

Structure (SMILES)	pKi
COc1ccnc(CN2CCc3c(cc(Cn4cc(F)sc4=N)cc3-c3cn(C)nc3C(F)(F)F)C2=O)c1 [Example 103, 7-((5-Fluoro-2-iminothiazol-3(2H)-yl)methyl)-2-((4-methoxypyridin-2-yl)methyl)-5-(1-methyl-3-(trifluoromethyl)-1H-pyrazol-4-yl)-3,4-dihydroisoquinolin-1(2H)-one]	7.77
COc1ccnc(CN2CCc3c(cc(CN4CCCC4=N)cc3-c3cn(C)nc3C)C2=O)c1 [Example 110, 5-(1,3-Dimethyl-1H-pyrazol-4-yl)-7-((2-iminopyrrolidin-1-yl)methyl)-2-((4-methoxypyridin-2-yl)methyl)-3,4-dihydroisoquinolin-1(2H)-one]	9.26
Cc1cc([C@H](C)N2CCc3c(cc(CNc4cccc(=O)[nH]4)cc3-c3cn(C)nc3C(F)(F)F)C2=O)ccc1F [Example 142, (S)-2-(1-(4-Fluoro-3-methylphenyl)ethyl)-5-(1-methyl-3-(trifluoromethyl)-1H-pyrazol-4-yl)-7-(((6-oxo-1,6-dihydropyridin-2-yl)amino)methyl)-3,4-dihydroisoquinolin-1(2H)-one]	7.60
CCn1cc(-c2cc(Cn3ccn(C4CC4)c3=N)cc3c2CCN(Cc2cc(OC)ccn2)C3=O)cn1 [Example 50, 7-((3-Cyclopropyl-2-imino-2,3-dihydro-1H-imidazol-1-yl)methyl)-5-(1-ethyl-1H-pyrazol-4-yl)-2-((4-methoxypyridin-2-yl)methyl)-3,4-dihydroisoquinolin-1(2H)-one]	9.00

These reach a higher pKi. Values come first.

pKi	Structure (SMILES)
10.27	COc1cc(CN2CCCc3c(cc(Cn4ccn(C)c4=N)cc3-c3ccc(F)cc3C)C2=O)cc(OC)c1 [Example 140, 2-(3,5-Dimethoxybenzyl)-6-(4-fluoro-2-methylphenyl)-8-((2-imino-3-methyl-2,3-dihydro-1H-imidazol-1-yl)methyl)-2,3,4,5-tetrahydro-1H-benzo[c]azepin-1-one]
> 10.30	CCn1cc(-c2cc(Cn3ccnc3C)cc3c2CCN([C@H](c2cc(OC)ccn2)C2CC2)C3=O)c(C(F)(F)F)n1 [Example 206, (S)-2-(cyclopropyl(4-methoxypyridin-2-yl)methyl)-5-(1-ethyl-3-(trifluoromethyl)-1H-pyrazol-4-yl)-7-((2-methyl-1H-imidazol-1-yl)methyl)-3,4-dihydroisoquinolin-1(2H)-one]
> 10.30	CCn1cc(-c2cc(Cn3ccnc3C)cc3c2CCN([C@@H](C)c2cncc(OC)c2)C3=O)c(C(F)(F)F)n1 [Example 243, (S)-5-(1-Ethyl-3-(trifluoromethyl)-1H-pyrazol-4-yl)-2-(1-(5-methoxypyridin-3-yl)ethyl)-7-((2-methyl-1H-imidazol-1-yl)methyl)-3,4-dihydroisoquinolin-1(2H)-one]
9.39	COc1cc(CN2CCc3c(cc(Cn4cc(C)nc4C)cc3-c3ccc(F)cc3C)C2=O)cc(OC)c1 [Example 18, 2-(3,5-Dimethoxybenzyl)-7-((2,4-dimethyl-1H-imidazol-1-yl)methyl)-5-(4-fluoro-2-methylphenyl)-3,4-dihydroisoquinolin-1(2H)-one]
> 10.30	Cc1cccc(CN2CCc3c(cc(Cn4ccnc4C)cc3-c3cn(C)nc3C(F)(F)F)C2=O)c1 [Example 209, 7-((2-Methyl-1H-imidazol-1-yl)methyl)-5-(1-methyl-3-(trifluoromethyl)-1H-pyrazol-4-yl)-2-(3-methylbenzyl)-3,4-dihydroisoquinolin-1(2H)-one]
> 10.30	CCc1ccc(OC)c(CN2CCc3c(cc(Cn4ccnc4C)cc3-c3cn(C)nc3C(F)(F)F)C2=O)c1 [Example 217, 2-(5-Ethyl-2-methoxybenzyl)-7-((2-methyl-1H-imidazol-1-yl)methyl)-5-(1-methyl-3-(trifluoromethyl)-1H-pyrazol-4-yl)-3,4-dihydroisoquinolin-1(2H)-one]
